Source: article PMC555569
Results are given in words; binding and its absence hold for the method and conditions named. For some assays here: Binding seen in cells or lysates may run through a third protein. Some results given as binding are weak or reduced against the parent protein; the word gives no strength. Values belong to the molecule of their own block, whether it stands above or below them.

Sequences of proteins named here, by UniProt entry; tags and fusion partners are left off. A change or cut given only in a name is not applied to a line headed by its entry. A line that says so, or that is headed by a name, gives the form on record, which may keep a tag or linker. Residues count along the entry.
UniProt Q9Y6W5: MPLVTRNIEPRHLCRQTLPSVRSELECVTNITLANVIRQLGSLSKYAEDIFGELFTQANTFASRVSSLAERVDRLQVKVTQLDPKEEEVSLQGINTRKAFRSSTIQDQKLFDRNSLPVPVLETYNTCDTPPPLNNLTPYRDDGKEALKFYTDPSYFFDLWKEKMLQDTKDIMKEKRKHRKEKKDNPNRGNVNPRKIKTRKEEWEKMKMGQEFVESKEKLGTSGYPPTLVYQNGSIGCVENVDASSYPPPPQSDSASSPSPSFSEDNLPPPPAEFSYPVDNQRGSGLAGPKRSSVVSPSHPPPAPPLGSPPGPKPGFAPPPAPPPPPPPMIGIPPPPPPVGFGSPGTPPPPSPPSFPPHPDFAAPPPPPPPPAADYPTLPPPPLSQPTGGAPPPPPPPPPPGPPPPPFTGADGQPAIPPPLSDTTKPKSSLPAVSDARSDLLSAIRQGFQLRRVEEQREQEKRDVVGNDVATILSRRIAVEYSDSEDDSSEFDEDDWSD
Myc-Scar2 SHD: residues 1-170 of Q9Y6W5
UniProt P60953: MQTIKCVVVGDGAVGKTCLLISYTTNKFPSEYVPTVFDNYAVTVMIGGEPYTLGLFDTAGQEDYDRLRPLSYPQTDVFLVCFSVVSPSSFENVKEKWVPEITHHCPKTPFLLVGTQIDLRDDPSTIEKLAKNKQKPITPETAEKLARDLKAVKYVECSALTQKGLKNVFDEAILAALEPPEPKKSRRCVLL
constitutively active GST-L61 Cdc42 (P60953, form named): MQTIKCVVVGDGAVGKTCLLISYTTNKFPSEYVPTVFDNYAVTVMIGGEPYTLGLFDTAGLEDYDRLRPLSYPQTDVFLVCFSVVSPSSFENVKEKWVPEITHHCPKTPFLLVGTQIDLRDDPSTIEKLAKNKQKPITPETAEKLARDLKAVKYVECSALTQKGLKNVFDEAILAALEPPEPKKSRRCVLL
UniProt Q9UQB8: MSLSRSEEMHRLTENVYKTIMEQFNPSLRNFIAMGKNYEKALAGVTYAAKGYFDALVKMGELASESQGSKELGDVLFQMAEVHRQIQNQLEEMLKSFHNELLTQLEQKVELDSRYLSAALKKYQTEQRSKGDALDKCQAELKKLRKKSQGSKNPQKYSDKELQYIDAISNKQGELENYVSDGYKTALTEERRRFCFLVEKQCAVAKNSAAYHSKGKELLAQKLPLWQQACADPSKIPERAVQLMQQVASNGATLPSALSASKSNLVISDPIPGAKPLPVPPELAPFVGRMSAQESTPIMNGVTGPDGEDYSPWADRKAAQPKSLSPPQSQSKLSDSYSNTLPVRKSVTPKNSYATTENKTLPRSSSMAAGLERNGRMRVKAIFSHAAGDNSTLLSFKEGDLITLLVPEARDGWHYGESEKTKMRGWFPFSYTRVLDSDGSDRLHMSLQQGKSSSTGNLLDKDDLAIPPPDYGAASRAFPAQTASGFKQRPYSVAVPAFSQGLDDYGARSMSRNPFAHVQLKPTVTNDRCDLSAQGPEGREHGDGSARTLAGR
UniProt Q8WUW1: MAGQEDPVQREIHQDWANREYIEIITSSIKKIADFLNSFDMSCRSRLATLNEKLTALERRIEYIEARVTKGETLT
UniProt Q8IZP0: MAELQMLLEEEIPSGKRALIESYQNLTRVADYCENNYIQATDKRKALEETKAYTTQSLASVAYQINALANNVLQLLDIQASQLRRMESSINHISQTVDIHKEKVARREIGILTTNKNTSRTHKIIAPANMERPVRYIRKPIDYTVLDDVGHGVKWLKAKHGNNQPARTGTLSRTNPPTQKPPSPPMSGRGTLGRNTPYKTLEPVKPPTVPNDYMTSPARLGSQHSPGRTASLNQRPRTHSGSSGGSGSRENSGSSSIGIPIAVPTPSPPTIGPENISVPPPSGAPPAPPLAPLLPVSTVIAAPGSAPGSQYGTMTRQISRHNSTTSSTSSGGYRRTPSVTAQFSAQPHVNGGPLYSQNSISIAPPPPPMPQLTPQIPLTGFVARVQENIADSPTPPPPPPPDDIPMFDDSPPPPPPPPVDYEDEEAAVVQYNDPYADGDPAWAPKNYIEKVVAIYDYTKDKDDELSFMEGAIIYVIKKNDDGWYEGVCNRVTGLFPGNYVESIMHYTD
UniProt Q8CBW3: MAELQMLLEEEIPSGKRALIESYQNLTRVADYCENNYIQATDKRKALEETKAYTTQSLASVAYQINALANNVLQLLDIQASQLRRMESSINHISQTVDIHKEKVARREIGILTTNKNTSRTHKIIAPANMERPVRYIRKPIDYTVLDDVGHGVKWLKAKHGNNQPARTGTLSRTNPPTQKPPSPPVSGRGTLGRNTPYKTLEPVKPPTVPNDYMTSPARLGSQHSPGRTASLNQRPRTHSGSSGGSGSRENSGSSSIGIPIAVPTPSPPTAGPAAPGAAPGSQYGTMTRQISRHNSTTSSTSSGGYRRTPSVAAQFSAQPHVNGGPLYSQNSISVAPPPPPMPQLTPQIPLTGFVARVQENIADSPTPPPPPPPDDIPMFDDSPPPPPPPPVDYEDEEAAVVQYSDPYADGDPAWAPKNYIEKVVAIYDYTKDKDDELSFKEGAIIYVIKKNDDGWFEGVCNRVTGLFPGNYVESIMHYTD

Tests used:
[1] = biological target: T1, Scar/WAVE3 (endogenous, mouse brain extract) (mouse (endogenous in mouse brain)) (UniProt Q8VHI6); experiment: co-IP; mouse brain extract (1% Triton X-100 lysis buffer, 500 ug total protein); anti-Abi1 or anti-Scar/WAVE3 antibody and protein G beads; immunoblot; controls without antibody or with an unrelated antibody
T1 sequence: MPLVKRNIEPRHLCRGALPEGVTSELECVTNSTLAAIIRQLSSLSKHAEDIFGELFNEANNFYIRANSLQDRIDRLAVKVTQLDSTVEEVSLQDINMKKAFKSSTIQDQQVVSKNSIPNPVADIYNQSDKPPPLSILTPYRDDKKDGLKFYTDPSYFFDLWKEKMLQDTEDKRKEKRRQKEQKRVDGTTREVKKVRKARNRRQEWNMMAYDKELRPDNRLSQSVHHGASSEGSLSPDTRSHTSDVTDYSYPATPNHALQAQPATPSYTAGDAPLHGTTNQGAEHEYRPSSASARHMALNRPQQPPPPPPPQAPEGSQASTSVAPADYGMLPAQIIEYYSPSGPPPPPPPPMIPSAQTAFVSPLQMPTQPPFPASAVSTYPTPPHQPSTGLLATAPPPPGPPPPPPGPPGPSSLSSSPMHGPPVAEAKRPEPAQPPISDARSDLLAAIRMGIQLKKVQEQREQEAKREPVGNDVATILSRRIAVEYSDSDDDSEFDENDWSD

GST-Scar2 SHD (human) = GST-Scar2 SHD (human) (UniProt Q9Y6W5); experiment: pull-down; GST-Scar SHD or GST alone on glutathione-s-agarose beads, incubated 1 hour with 500 ug lysate of Cos7 cells transfected with HA-Abi1 or HA-HSPC300; 1% Triton lysis buffer; immunoblot; only the target purified
Myc-Scar2 SHD (human) = Myc-Scar2 SHD (human) (UniProt Q9Y6W5); experiment: co-IP; lysates of Cos7 cells co-transfected with Myc-Scar SHD and HA-Abi1 or HA-HSPC300; 9E10 anti-Myc and protein G beads; immunoblot; controls without antibody or with empty pRK5-Myc vector
[2] = biological target: constitutively active GST-L61 Cdc42 (UniProt P60953); experiment: pull-down; equivalent amounts of GST-IRSp53 or GST-L61 Cdc42 on glutathione-s-agarose beads, incubated with lysates of Cos cells transfected with Myc-Scar1, 2 or 3; immunoblot with 9E10 anti-Myc; only the target purified
GST-IRSp53 = GST-IRSp53 (UniProt Q9UQB8); experiment: as above
[3] = biological target: pYTH9-HSPC300 (GAL4 DNA-binding domain fusion of HSPC300) (UniProt Q8WUW1); experiment: two-hybrid; yeast two-hybrid; Abi1 or HSPC300 on the GAL4 DNA-binding domain (pYTH9), Scar1 constructs on the GAL4 activation domain (pACT-II); beta-Gal reporter gene assay
[4] = biological target: pYTH9-Abi1 (GAL4 DNA-binding domain fusion of Abi1) (UniProt Q8IZP0); experiment: as above
[5] = biological target: Abi1 (endogenous, mouse brain extract) (mouse (endogenous in mouse brain)) (UniProt Q8CBW3); experiment: co-IP; mouse brain extract (1% Triton X-100 lysis buffer, 500 ug total protein); anti-Abi1 or anti-Scar/WAVE3 antibody and protein G beads; immunoblot; controls without antibody or with an unrelated antibody

binding [1]: binds
Molecule: Abi1 (endogenous, mouse brain extract) (from UniProt Q8CBW3 1-481)

binding (GST-Scar2 SHD (human)): binds
binding (Myc-Scar2 SHD (human)): binds
Molecule: HA-Abi1 (from UniProt Q8IZP0 1-508)

binding [2]: no binding
binding (GST-IRSp53): binds
Molecule: Myc-Scar1 (from UniProt Q92558 1-559)

binding [2]: no binding
binding (GST-IRSp53): binds
Molecule: Myc-Scar2 (from UniProt Q9Y6W5 1-498)

binding [3]: binds
binding [4]: binds
Molecule: pAct-Scar1 Full Length (FL) (from UniProt Q92558 1-559)

binding [5]: binds
B1: Scar/WAVE1 (endogenous, mouse brain extract) (protein, UniProt Q8R5H6 1-559)
chain: MPLVKRNIDPRHLCHTALPRGIKNELECVTNISLANIIRQLSSLSKYAEDIFGELFNEAHSFSFRVNSLQERVDRLSVSVTQLDPKEEELSLQDITMRKAFRSSTIQDQQLFDRKTLPIPLQETYDVCEQPPPLNILTPYRDDGKEGLKFYTNPSYFFDLWKEKMLQDTEDKRKEKRKQKQKNLDRPHEPEKVPRAPHDRRREWQKLAQGPELAEDDADLLHKHIEVANGPASHYETRPQTYVDHMDGSYSLSALPFSQMSELLTRAEERVLVRPHEPPPPPPMHGAGDAKPTPTCISSATGLIENRPQSPAAGRTPVFVSPTPPPPPPPLPSALSTSSLRASMTSTPPPPVPPPPPPPATALQAPAVPPPPAPLQIAPGVLHPAPPPIAPPLVQPSPPVARAAPVCETVPVHPLPQGEVQGLPPPPPPPPLPPPGIRPSSPVAVAALAHPPSGLHPAPSTAPGPHAPLMPPSPPSQVLPASEPKRHPSTLPVISDARSVLLEAIRKGIQLRKVEEQREQEAKHERIENDVATILSRRIAVEYSDSEDDSEFDEVDWLE

binding [5]: binds
B2: Scar/WAVE3 (endogenous, mouse brain extract) (protein, UniProt Q8VHI6 1-501)
chain: T1 sequence
